For 63 sequences, binding signal (RPM ratio (pull-down/input)) results are on record in publication PMC12820563.

The other results are listed elsewhere or left out. The list includes weakly bound sequences.

For this assay, the target named is T1, MBP-FoxP3dN (UniProt Q99JB6).
T1 sequence: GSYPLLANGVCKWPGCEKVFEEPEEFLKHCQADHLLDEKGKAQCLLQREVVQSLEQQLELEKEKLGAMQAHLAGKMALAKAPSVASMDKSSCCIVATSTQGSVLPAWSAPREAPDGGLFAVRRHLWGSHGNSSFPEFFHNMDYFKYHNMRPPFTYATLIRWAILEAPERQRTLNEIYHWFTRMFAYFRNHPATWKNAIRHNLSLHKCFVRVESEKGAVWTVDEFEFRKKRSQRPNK
Kind of assay: PD-seq (MBP pull-down with sequencing). Conditions: 20 mM Tris-HCl pH 7.5, 100 mM NaCl, 1.5 mM MgCl2, 0.4 uM protein, 0.1 uM dsDNA library, 30 min, room temperature, amylose pull-down; high values mean tight binding; double strand, one strand shown.
In the case of “GATGATTGTTCTCCCAGCTGATGAATTACACACCTCGAGTAAACAAATTTTCCTAATCTTTCTGTTCAAGCGCCATCTAC”, the binding signal (RPM ratio (pull-down/input)) stood at 0.652. Then “GATGATTGTTCTCCCAGCTGATGAATTACATGGGTCGAGTAAACAAATTTTCCTAATCTTTCTGTTCAAGCGCCATCTAC”, with 0.388.

On to “GATGATTGTTCTCCCAGCTGATGAATTCACCGCTTCGAGTAAACAAATTTTCCTAATCTTTCTGTTCAAGCGCCATCTAC”, for which the binding signal (RPM ratio (pull-down/input)) is 0.331. Then “GATGATTGTTCTCCCAGCTGATGAATTTGGACTTTCGAGTAAACAAATTTTCCTAATCTTTCTGTTCAAGCGCCATCTAC”, with 1.19.

On to “GATGATTGTTCTCCCAGCTGATGAATTCGCTTCCTCGAGTAAACAAATTTTCCTAATCTTTCTGTTCAAGCGCCATCTAC”, for which the binding signal (RPM ratio (pull-down/input)) came out at 0.784. In the case of “GATGATTGTTCTCCCAGCTGATGAATTGGTTAAGTCGAGTAAACAAATTTTCCTAATCTTTCTGTTCAAGCGCCATCTAC”, the binding signal (RPM ratio (pull-down/input)) was determined as 0.315. For “GATGATTGTTCTCCCAGCTGATGAATTCCACTACTCGAGTAAACAAATTTTCCTAATCTTTCTGTTCAAGCGCCATCTAC”, the binding signal (RPM ratio (pull-down/input)) amounted to 0.367. To “GATGATTGTTCTCCCAGCTGATGAATTTCGTTAATCGAGTAAACAAATTTTCCTAATCTTTCTGTTCAAGCGCCATCTAC” belongs 0.405; to “GATGATTGTTCTCCCAGCTGATGAATTGAAGTTATCGAGTAAACAAATTTTCCTAATCTTTCTGTTCAAGCGCCATCTAC”, 0.604. For “GATGATTGTTCTCCCAGCTGATGAATTGGAATAGTCGAGTAAACAAATTTTCCTAATCTTTCTGTTCAAGCGCCATCTAC”, the binding signal (RPM ratio (pull-down/input)) worked out at 0.311. Then “GATGATTGTTCTCCCAGCTGATGAATTGGCGGGTTCGAGTAAACAAATTTTCCTAATCTTTCTGTTCAAGCGCCATCTAC”, with 0.391; and “GATGATTGTTCTCCCAGCTGATGAATTTAGCGCGTCGAGTAAACAAATTTTCCTAATCTTTCTGTTCAAGCGCCATCTAC”, with 1.59; and “GATGATTGTTCTCCCAGCTGATGAATTATTCAGATCGAGTAAACAAATTTTCCTAATCTTTCTGTTCAAGCGCCATCTAC”, with 0.24. With “GATGATTGTTCTCCCAGCTGATGAATTCCTTCAATCGAGTAAACAAATTTTCCTAATCTTTCTGTTCAAGCGCCATCTAC”, the binding signal (RPM ratio (pull-down/input)) is 0.215.

Take “GATGATTGTTCTCCCAGCTGATGAATTTGGCTCTTCGAGTAAACAAATTTTCCTAATCTTTCTGTTCAAGCGCCATCTAC”: the binding signal (RPM ratio (pull-down/input)) was determined as 0.655. Then “GATGATTGTTCTCCCAGCTGATGAATTTATGCCGTCGAGTAAACAAATTTTCCTAATCTTTCTGTTCAAGCGCCATCTAC”, with 1.27; and “GATGATTGTTCTCCCAGCTGATGAATTTAGCGAGTCGAGTAAACAAATTTTCCTAATCTTTCTGTTCAAGCGCCATCTAC”, with 0.73; and “GATGATTGTTCTCCCAGCTGATGAATTACTTACCTCGAGTAAACAAATTTTCCTAATCTTTCTGTTCAAGCGCCATCTAC”, with 0.414. Then “GATGATTGTTCTCCCAGCTGATGAATTTGCAGGGTCGAGTAAACAAATTTTCCTAATCTTTCTGTTCAAGCGCCATCTAC”, with 0.849; and “GATGATTGTTCTCCCAGCTGATGAATTTGTCGCCTCGAGTAAACAAATTTTCCTAATCTTTCTGTTCAAGCGCCATCTAC”, with 3.03; and “GATGATTGTTCTCCCAGCTGATGAATTCCGTCGCTCGAGTAAACAAATTTTCCTAATCTTTCTGTTCAAGCGCCATCTAC”, with 0.441. To “GATGATTGTTCTCCCAGCTGATGAATTAGGTGGTTCGAGTAAACAAATTTTCCTAATCTTTCTGTTCAAGCGCCATCTAC” belongs 0.919; to “GATGATTGTTCTCCCAGCTGATGAATTAAGAATGTCGAGTAAACAAATTTTCCTAATCTTTCTGTTCAAGCGCCATCTAC”, 0.505. “GATGATTGTTCTCCCAGCTGATGAATTGTGGGCTTCGAGTAAACAAATTTTCCTAATCTTTCTGTTCAAGCGCCATCTAC”: the binding signal (RPM ratio (pull-down/input)) came to 0.63. To “GATGATTGTTCTCCCAGCTGATGAATTGGAGCGGTCGAGTAAACAAATTTTCCTAATCTTTCTGTTCAAGCGCCATCTAC” belongs 0.272; to “GATGATTGTTCTCCCAGCTGATGAATTGGGGATTTCGAGTAAACAAATTTTCCTAATCTTTCTGTTCAAGCGCCATCTAC”, 0.404; to “GATGATTGTTCTCCCAGCTGATGAATTCTGGGTATCGAGTAAACAAATTTTCCTAATCTTTCTGTTCAAGCGCCATCTAC”, 0.634. To “GATGATTGTTCTCCCAGCTGATGAATTAGGAATATCGAGTAAACAAATTTTCCTAATCTTTCTGTTCAAGCGCCATCTAC” belongs 0.47; to “GATGATTGTTCTCCCAGCTGATGAATTCGGACAGTCGAGTAAACAAATTTTCCTAATCTTTCTGTTCAAGCGCCATCTAC”, 0.285; to “GATGATTGTTCTCCCAGCTGATGAATTGTGGAATTCGAGTAAACAAATTTTCCTAATCTTTCTGTTCAAGCGCCATCTAC”, 0.848. As for “GATGATTGTTCTCCCAGCTGATGAATTGCGAACGTCGAGTAAACAAATTTTCCTAATCTTTCTGTTCAAGCGCCATCTAC”, the binding signal (RPM ratio (pull-down/input)) amounted to 0.621. To “GATGATTGTTCTCCCAGCTGATGAATTCTCAAGCTCGAGTAAACAAATTTTCCTAATCTTTCTGTTCAAGCGCCATCTAC” belongs 0.225. Then “GATGATTGTTCTCCCAGCTGATGAATTCCTGTGCTCGAGTAAACAAATTTTCCTAATCTTTCTGTTCAAGCGCCATCTAC”, with 0.35. Take “GATGATTGTTCTCCCAGCTGATGAATTCGAACGCTCGAGTAAACAAATTTTCCTAATCTTTCTGTTCAAGCGCCATCTAC”: the binding signal (RPM ratio (pull-down/input)) stood at 0.31. In the case of “GATGATTGTTCTCCCAGCTGATGAATTAAGGTCCTCGAGTAAACAAATTTTCCTAATCTTTCTGTTCAAGCGCCATCTAC”, the binding signal (RPM ratio (pull-down/input)) is 0.423. To “GATGATTGTTCTCCCAGCTGATGAATTCATTGTCTCGAGTAAACAAATTTTCCTAATCTTTCTGTTCAAGCGCCATCTAC” belongs 2.39.

As to “GATGATTGTTCTCCCAGCTGATGAATTCGCATTTTCGAGTAAACAAATTTTCCTAATCTTTCTGTTCAAGCGCCATCTAC”, the binding signal (RPM ratio (pull-down/input)) came out at 4.25. Then “GATGATTGTTCTCCCAGCTGATGAATTAGTCCCCTCGAGTAAACAAATTTTCCTAATCTTTCTGTTCAAGCGCCATCTAC”, with 0.589. For “GATGATTGTTCTCCCAGCTGATGAATTTGGTCAGTCGAGTAAACAAATTTTCCTAATCTTTCTGTTCAAGCGCCATCTAC”, the binding signal (RPM ratio (pull-down/input)) was 0.311. Then “GATGATTGTTCTCCCAGCTGATGAATTGCACGTCTCGAGTAAACAAATTTTCCTAATCTTTCTGTTCAAGCGCCATCTAC”, with 1.03; and “GATGATTGTTCTCCCAGCTGATGAATTAGAGGGGTCGAGTAAACAAATTTTCCTAATCTTTCTGTTCAAGCGCCATCTAC”, with 0.394; and “GATGATTGTTCTCCCAGCTGATGAATTCACGGCATCGAGTAAACAAATTTTCCTAATCTTTCTGTTCAAGCGCCATCTAC”, with 0.723. Then “GATGATTGTTCTCCCAGCTGATGAATTCCCCATTTCGAGTAAACAAATTTTCCTAATCTTTCTGTTCAAGCGCCATCTAC”, with 0.267. To “GATGATTGTTCTCCCAGCTGATGAATTCCAGGTGTCGAGTAAACAAATTTTCCTAATCTTTCTGTTCAAGCGCCATCTAC” belongs 0.478; to “GATGATTGTTCTCCCAGCTGATGAATTATAAGCCTCGAGTAAACAAATTTTCCTAATCTTTCTGTTCAAGCGCCATCTAC”, 0.453. Take “GATGATTGTTCTCCCAGCTGATGAATTACATACATCGAGTAAACAAATTTTCCTAATCTTTCTGTTCAAGCGCCATCTAC”: the binding signal (RPM ratio (pull-down/input)) stood at 1.07. To “GATGATTGTTCTCCCAGCTGATGAATTATCATCTTCGAGTAAACAAATTTTCCTAATCTTTCTGTTCAAGCGCCATCTAC” belongs 0.605. On to “GATGATTGTTCTCCCAGCTGATGAATTCTACGTATCGAGTAAACAAATTTTCCTAATCTTTCTGTTCAAGCGCCATCTAC”, for which the binding signal (RPM ratio (pull-down/input)) was 0.491. To “GATGATTGTTCTCCCAGCTGATGAATTAGAACGATCGAGTAAACAAATTTTCCTAATCTTTCTGTTCAAGCGCCATCTAC” belongs 0.211; to “GATGATTGTTCTCCCAGCTGATGAATTAGGCTCGTCGAGTAAACAAATTTTCCTAATCTTTCTGTTCAAGCGCCATCTAC”, 0.572.

Consider “GATGATTGTTCTCCCAGCTGATGAATTCACCATTTCGAGTAAACAAATTTTCCTAATCTTTCTGTTCAAGCGCCATCTAC”, for which the binding signal (RPM ratio (pull-down/input)) came out at 0.406.

Consider “GATGATTGTTCTCCCAGCTGATGAATTATTGCTGTCGAGTAAACAAATTTTCCTAATCTTTCTGTTCAAGCGCCATCTAC”, for which the binding signal (RPM ratio (pull-down/input)) is 0.856. To “GATGATTGTTCTCCCAGCTGATGAATTCGGCATTTCGAGTAAACAAATTTTCCTAATCTTTCTGTTCAAGCGCCATCTAC” belongs 5.91; to “GATGATTGTTCTCCCAGCTGATGAATTTGTGCCGTCGAGTAAACAAATTTTCCTAATCTTTCTGTTCAAGCGCCATCTAC”, 1.88; to “GATGATTGTTCTCCCAGCTGATGAATTCGCCGTGTCGAGTAAACAAATTTTCCTAATCTTTCTGTTCAAGCGCCATCTAC”, 0.538.

As for “GATGATTGTTCTCCCAGCTGATGAATTACTATACTCGAGTAAACAAATTTTCCTAATCTTTCTGTTCAAGCGCCATCTAC”, the binding signal (RPM ratio (pull-down/input)) turned out to be 0.498.

Turning to “GATGATTGTTCTCCCAGCTGATGAATTGTAATGGTCGAGTAAACAAATTTTCCTAATCTTTCTGTTCAAGCGCCATCTAC”, the binding signal (RPM ratio (pull-down/input)) is 0.799. Then “GATGATTGTTCTCCCAGCTGATGAATTACGTATTTCGAGTAAACAAATTTTCCTAATCTTTCTGTTCAAGCGCCATCTAC”, with 2.14; and “GATGATTGTTCTCCCAGCTGATGAATTGGGTCAGTCGAGTAAACAAATTTTCCTAATCTTTCTGTTCAAGCGCCATCTAC”, with 0.263; and “GATGATTGTTCTCCCAGCTGATGAATTTGAACTTTCGAGTAAACAAATTTTCCTAATCTTTCTGTTCAAGCGCCATCTAC”, with 0.288. Then “GATGATTGTTCTCCCAGCTGATGAATTGAGATAGTCGAGTAAACAAATTTTCCTAATCTTTCTGTTCAAGCGCCATCTAC”, with 0.436; and “GATGATTGTTCTCCCAGCTGATGAATTAATCAGATCGAGTAAACAAATTTTCCTAATCTTTCTGTTCAAGCGCCATCTAC”, with 0.222; and “GATGATTGTTCTCCCAGCTGATGAATTTAGCTCTTCGAGTAAACAAATTTTCCTAATCTTTCTGTTCAAGCGCCATCTAC”, with 0.542.
